In paper PMC7819943, “Rice protein-binding microarrays: a tool to detect cis-acting elements near promoter regions in rice”:
The list shows a part of the results.

Each sequence was assayed against T1, OsWOX13 (Oryza sativa, UniProt Q5QMM3 1-267) (assay: protein-binding microarray (RPBM); PBS, 2% BSA, 51.3 ng/ul salmon testes DNA, 50 uM zinc acetate, 200 nM TF, 25 C, 1 h; high values mean tight binding). Settings: protein: recombinant; tags: N-terminal polyhistidine and DsRed monomer fusion (pET32a); label: CyDye5-dUTP incorporated in the synthesized complementary strand; 3' TTTTT single-stranded linker to array surface; dsDNA, one strand shown.
T1 sequence: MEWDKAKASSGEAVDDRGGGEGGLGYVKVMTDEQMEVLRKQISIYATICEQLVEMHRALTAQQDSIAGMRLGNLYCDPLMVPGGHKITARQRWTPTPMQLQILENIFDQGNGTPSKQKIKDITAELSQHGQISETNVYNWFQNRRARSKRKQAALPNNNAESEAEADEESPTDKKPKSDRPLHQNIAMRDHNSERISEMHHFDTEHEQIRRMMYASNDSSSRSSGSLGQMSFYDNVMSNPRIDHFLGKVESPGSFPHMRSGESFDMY
Procedure, shortened: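 In PBS with 2% BSA, salmon testes DNA and 50 µM zinc acetate, 200 nM protein was incubated on a custom Agilent array at 25 °C for 1 h and then washed off. The array had been made double-stranded by primer extension with Cy5-dUTP and blocked with 2% BSA. The proteins were transcription factors fused N-terminally to polyhistidine and DsRed, expressed in E. coli BL21-CodonPlus and purified on Ni–NTA. The binding signal is per-feature fluorescence intensity (arbitrary units) from an Axon 4000B scanner.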

Sequence | binding signal
TCTTTTGATTATGTGGCCAACTATATATTAATAACTTTGGCGGAGTCACCTAGTGCAG | 15300 fluorescence intensity (a.u.)
TCTGATGAGGAACACATCTCACTTGGGCTCCACGTTCTTCCGGAGTCACCTAGTGCAG | 5780 fluorescence intensity (a.u.)
GAACCGTACCACTACTGATTGATATCGACGTGTTTCACCGCGGAGTCACCTAGTGCAG | 20100 fluorescence intensity (a.u.)
CATTGATGTTTTAAATATGACAGGATCCTCCAAGGGAAGACGGAGTCACCTAGTGCAG | 3930 fluorescence intensity (a.u.)
CGATGACTAATTTGGTAGTAAGCATACATGCATGGGCCAACGGAGTCACCTAGTGCAG | 12700 fluorescence intensity (a.u.)
GCAAGTTACAGTTTGATTACTATGTCACCTATACACATATCGGAGTCACCTAGTGCAG | 5960 fluorescence intensity (a.u.)
GGATTAATTAGGCTCAATAGATTCGTCTTGCGAATTAGTTCGGAGTCACCTAGTGCAG | 13600 fluorescence intensity (a.u.)
TGCTAATTAACATACTACTAAAATCATTAGCAGTAAAACGCGGAGTCACCTAGTGCAG | 23000 fluorescence intensity (a.u.)
AGCAAATTAAGCAAGAGGCAATTAGAGCGACCTGAATCCGCGGAGTCACCTAGTGCAG | 6850 fluorescence intensity (a.u.)
CTGTTAAATGGATAGCACTAGAATGATATATATATACTTCCGGAGTCACCTAGTGCAG | 4400 fluorescence intensity (a.u.)
AATTGATGATTTACAGGCTAAAGATGTATGGGATATTGTTCGGAGTCACCTAGTGCAG | 23000 fluorescence intensity (a.u.)
ACCTGATGATAGCTCAACCACGCCTGAATCCACAATCCATCGGAGTCACCTAGTGCAG | 4380 fluorescence intensity (a.u.)
TCCGGGCTGGGTGGGTGGGGTGGGGATGGAGCTTGCCTGGCGGAGTCACCTAGTGCAG | 8780 fluorescence intensity (a.u.)
ATCATTGATGGCGACCCAAAACAGGGGTAATTTGGAAAGTCGGAGTCACCTAGTGCAG | 3380 fluorescence intensity (a.u.)
CGGTCAATCAGGACCCGGGCGACCAAAATATCCCGCTGTCCGGAGTCACCTAGTGCAG | 12400 fluorescence intensity (a.u.)
GGATTAATTATACTTAATAAATTCGTCTCGCAGTTTACAGCGGAGTCACCTAGTGCAG | 31100 fluorescence intensity (a.u.)
ATAATTTATAGGTAATTTTATATGTGATGTTATTAGTGACCGGAGTCACCTAGTGCAG | 30100 fluorescence intensity (a.u.)
CCTCAATTATTAGTAAGATCGATTATTAGTCCCAGTTAGTCGGAGTCACCTAGTGCAG | 12700 fluorescence intensity (a.u.)
ATTTATGATTTTAAAAGCCAATGTTAAAAGTAGACCACTACGGAGTCACCTAGTGCAG | 3750 fluorescence intensity (a.u.)
ATTAAACCAATAATTTAAAGATCCATAACGCTAATATTTGCGGAGTCACCTAGTGCAG | 8090 fluorescence intensity (a.u.)
CTCTAATTATAATACCATTATTTGGCACCGAACTTTATCACGGAGTCACCTAGTGCAG | 17400 fluorescence intensity (a.u.)

Sequence | binding signal
TGTCAGTTTTAGTCTAATTGATAATTTACTTCCAACAATCCGGAGTCACCTAGTGCAG | 25500 fluorescence intensity (a.u.)
ATCCAATTAGACCTTTGAGAGGTGTTTATCTCCTTTTCAACGGAGTCACCTAGTGCAG | 3740 fluorescence intensity (a.u.)
AATGTTTGATGTGACAAAATTTCTAGGGTGGGATCTAAACCGGAGTCACCTAGTGCAG | 3860 fluorescence intensity (a.u.)
ACAAATTTCTTATATGATTCCTTCTATATTACCAAAAGTGCGGAGTCACCTAGTGCAG | 4700 fluorescence intensity (a.u.)
TCCTCGCAATCATTCCTCCCAAATCTGAAATCTTGCAAGGCGGAGTCACCTAGTGCAG | 3180 fluorescence intensity (a.u.)
ATAAAATTTGTTAAGGACTACTAGTCTTTGTGTATACTTGCGGAGTCACCTAGTGCAG | 3180 fluorescence intensity (a.u.)
ACTCAAAATCTGTTTATAGTTGATTTATAGTCTGCTAATCCGGAGTCACCTAGTGCAG | 7910 fluorescence intensity (a.u.)
CTCATCCCTCCTGCTAGATATTACTGTTGCTGGCCCCAACCGGAGTCACCTAGTGCAG | 4430 fluorescence intensity (a.u.)
TTTAAAATACTTAATAGTCAATTAATCATATGCTAATGGCCGGAGTCACCTAGTGCAG | 16900 fluorescence intensity (a.u.)
TGTGACTGTGAAAGTCTATCCAATCCAGTAATCCACTCTACGGAGTCACCTAGTGCAG | 6430 fluorescence intensity (a.u.)
CTTCCATTTCCTGTCATCTGATGCAAATATATTTGTTCTGCGGAGTCACCTAGTGCAG | 3470 fluorescence intensity (a.u.)
ACCCGTAACCATAATTACCATTCCCGTGGGCGTGGACAGTCGGAGTCACCTAGTGCAG | 12500 fluorescence intensity (a.u.)
AGCTACAGTGACGGGCAACAAATTGGCTGGATATCCTGTTCGGAGTCACCTAGTGCAG | 9250 fluorescence intensity (a.u.)
TTGCAGTTAACGGAATCAGATTAAAGAAGGAAACAAGTGCCGGAGTCACCTAGTGCAG | 8900 fluorescence intensity (a.u.)
AGTCAATTATGACAATTGCTTAGAAATGCTATTCTAGGATCGGAGTCACCTAGTGCAG | 31500 fluorescence intensity (a.u.)
AATCTTATTTTAATTAAATCAAATCTTGTCTTAAACTACTCGGAGTCACCTAGTGCAG | 9010 fluorescence intensity (a.u.)
ATTCTGTGATCTAAACATGATTTATGTGTTGATCTCAATTCGGAGTCACCTAGTGCAG | 5410 fluorescence intensity (a.u.)
CCTATATAAATTATCCGAGTACTAATACGTCGAATATGGTCGGAGTCACCTAGTGCAG | 3870 fluorescence intensity (a.u.)
TACTTGATTGGGTTTATTAGCGGATCGAGACTGTGGTACGCGGAGTCACCTAGTGCAG | 48200 fluorescence intensity (a.u.)
GTACAATCATGCTAAATGTCAATCTTTTGAAAACTGAATCCGGAGTCACCTAGTGCAG | 3920 fluorescence intensity (a.u.)
TAAAATTGTAATTATTTTGGGACGGAGGTAGTACTAATTGCGGAGTCACCTAGTGCAG | 31500 fluorescence intensity (a.u.)
